{"source": "PubChem BioAssay AID686979", "about": "(National Center for Advancing Translational Sciences (NCATS), 2013)", "note": "Hit rate of the full screen: of about 420,000 compounds, about 50,000 (12%) were called active. Inconclusive results, whose numbers are uncertain, are shown with a selection of clear calls. The call rests on the fitted dose curve; in most records, active means well fitted inhibition curve with a large enough effect; inconclusive means small, poorly fitted or top-dose-only effect; inactive means flat fitted curve, though single readings scatter. Potencies of inconclusive entries are left out as doubtful fits. On the % scale 0 is the no-effect control and ±100 the full control effect; potency means the concentration at half of the fitted maximal effect; tags describe the fitted curve by direction and shape.", "data": [{"assay": "qHTS for Inhibitors of human tyrosyl-DNA phosphodiesterase 1 (TDP1): qHTS in cells in presence of CPT; further: nearly all actives have a fitted effect of over 55% in size", "details": "chicken DT40 Tdp1-/-;hTDP1 cells + 20 nM CPT, ATP luminescence, 48 h; activity change, negative = growth inhibition: at 46.2 µM (top of the series) unless noted", "method_in_brief": "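Cell growth measured by CellTiter-Glo luminescence after a minimum 48 h, 37 C compound exposure with 20 nM CPT in Tdp1-knockout DT40 cells stably expressing hTDP1, seeded 400/well; qHTS titration format.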", "values": [{"compound": "CC1=NN(c2ccccc2)C(=O)/C1=C/C=C/C=C/N(C)C", "Potency": "inconclusive [inhibitor, single point]"}, {"compound": "CC(C)CC(NC(N)=O)C(=O)NCc1ccccc1Cl", "note": "(stereo unspecified)", "Potency": "inactive"}, {"compound": "CCN(CC)S(=O)(=O)c1ccc(N2CCOCC2)c(NC(=O)COc2ccc(C#N)cc2)c1", "Potency": "inconclusive [inhibitor, single point]"}, {"compound": "CC(=O)N1CCc2c(sc(NC(=O)C3CCCCC3)c2C(N)=O)C1", "Potency": "inactive"}, {"compound": "CC(C)(C)N(Cc1ccccc1)C(=O)CN1C(=O)c2ccccc2S1(=O)=O", "Potency": "inconclusive [inhibitor, single point]"}, {"compound": "CN(CC(=O)Nc1ccc(F)c(Cl)c1)S(=O)(=O)c1ccc2c(c1)n(C)c(=O)c(=O)n2C", "Potency": "inconclusive [inhibitor, single point]"}, {"compound": "COc1ccc(OC)c(C(C)NC(=O)Cn2c(=O)cc(C)c3c(C)nn(-c4ccc(C)cc4)c32)c1", "note": "(stereo unspecified)", "Potency": "inconclusive [inhibitor, partial curve]"}, {"compound": "CCc1nc2ccc(C(=O)Nc3cc(-c4ccccc4)ccc3OC)cn2c1N(C)CCC(C)C", "Potency": "active: 18.4 µM"}, {"compound": "CCOc1cc(CNCCc2ccccc2)ccc1OCC(=O)NC(C)(C)C", "Potency": "active: 18.4 µM"}, {"compound": "Cc1cc(C2=NNC(=NC3CC3)SC2)c(C)n1-c1ccccc1F", "Potency": "active: 16.4 µM"}, {"compound": "COc1ccccc1NC(=O)C(=O)N1N=C(C(C)C)CC1(O)C(F)(F)F", "note": "(stereo unspecified)", "Potency": "inactive"}, {"compound": "COc1ccc(CNC(=O)c2nn(-c3ccccc3C)nc2CO)cc1", "Potency": "inactive"}, {"compound": "Cc1ccc2c(c1)c1c3n2CCCNC3CCC1", "note": "(stereo unspecified)", "Potency": "inconclusive [inhibitor, single point]"}, {"compound": "CCOC(=O)C1CC2=C(CCCC2=O)N(Cc2ccccc2)C1=O", "note": "(stereo unspecified)", "Potency": "inactive"}, {"compound": "CC(=O)N1CCN(CC(C)(C)NS(=O)(=O)c2ccccc2)CC1", "Potency": "inactive"}, {"compound": "CCCCC(=O)Nc1ccc2nc(SCC(=O)N3CCCC3)sc2c1", "Potency": "inconclusive [inhibitor, single point]"}, {"compound": "Cc1cc(NC(=O)C(=O)NCCN2CCN(C(=O)c3cccs3)CC2)ccc1Br", "Potency": "inconclusive [inhibitor, partial curve, poor fit]"}, {"compound": "Clc1ccc2oc(-c3ccccc3)cc(=NCCCN3CCOCC3)c2c1", "Potency": "inconclusive [inhibitor, single point]"}, {"compound": "COc1ccccc1-c1cc(C(=O)N2CCCCC2C)no1", "note": "(stereo unspecified)", "Potency": "inconclusive [inhibitor, partial curve]"}, {"compound": "Cc1ccc(C)c(N2CCN(Cc3csc(C)c3C)CC2)c1", "Potency": "inconclusive [inhibitor, single point]"}, {"compound": "CCC(C)Oc1cccc(C(=O)Nc2ccccc2N2CCOCC2)c1", "note": "(stereo unspecified)", "Potency": "inconclusive [inhibitor, single point]"}, {"compound": "COC(=O)c1ccccc1N(C)S(=O)(=O)c1cc2c(cc1C)OCC(=O)N2", "Potency": "inconclusive [inhibitor, single point]"}, {"compound": "COC(=O)[C@@]12C[C@@H](CC(=O)NCc3cccs3)C(=O)N(Cc3ccc4c(c3)OCO4)C1=CCC(C)(C)C2", "Potency": "inconclusive [inhibitor, single point]"}, {"compound": "COc1ccc(S(=O)(=O)Nc2cc3c4c(c2)CCC(=O)N4CCC3)cc1", "Potency": "inactive"}, {"compound": "CC(=O)[C@@]1(O)CCC2C3CC[C@H]4C[C@@H](O)CC[C@]4(C)C3CC[C@@]21C", "note": "(stereo partly specified)", "Potency": "inactive"}, {"compound": "ClCCn1cnc2c(SCc3ccccc3)ncnc21", "Potency": "inconclusive [inhibitor, partial curve]"}, {"compound": "CCc1ccc(Nc2ncnc3c2cnn3-c2cc(Cl)ccc2C)cc1", "Potency": "inconclusive [inhibitor, single point]"}, {"compound": "Cc1nc2cc(F)ccc2n1C1CCN(S(=O)(=O)c2ccccc2)CC1", "Potency": "inconclusive [inhibitor, partial curve, poor fit]"}, {"compound": "CCOc1ccccc1N=Nc1c(C)[nH]n(C(N)=S)c1=O", "Potency": "inconclusive [inhibitor, single point]"}, {"compound": "O=C(CCNC(=O)c1ccco1)Nc1ccc(N2CCOCC2)cc1", "Potency": "inactive"}, {"compound": "COc1ccc(C(CC(=O)c2ccccc2)S(=O)(=O)c2ccccc2)cc1", "note": "(stereo unspecified)", "Potency": "active: 23.1 µM"}, {"compound": "CCOc1ccccc1CC1C(=O)Nc2ccc(Br)cc21", "note": "(stereo unspecified)", "Potency": "inconclusive [inhibitor, single point]"}, {"compound": "Cn1cnnc1Sc1ccc(CN2CCOc3ccc(C4=Cc5ccccc5CC4)cc3C2)o1", "Potency": "inconclusive [inhibitor, single point]"}, {"compound": "O=C(NCc1ccc(N2CCCC2=O)cc1)c1cccc(Cl)c1", "Potency": "inactive"}, {"compound": "CCC(O)CNC(=O)CCc1nnc(C2(c3ccc(Cl)cc3)CCC2)o1", "note": "(stereo unspecified)", "Potency": "inactive"}, {"compound": "COc1ccccc1N1CCN(C(CNC(=O)c2ccc3c(c2)OCO3)c2cccnc2)CC1", "note": "(stereo unspecified)", "Potency": "inconclusive [inhibitor, single point]"}, {"compound": "COc1cc(C#N)ccc1OC(=O)Cc1cc(OC)c(OC)c(OC)c1", "Potency": "inactive"}, {"compound": "O=C(Nc1ccccc1)Nc1nnc(Cc2ccccc2F)s1", "Potency": "inactive"}, {"compound": "COc1ccc(-c2ncncc2-c2ccccc2)c(O)c1", "Potency": "inconclusive [inhibitor, partial curve]"}, {"compound": "CCCNC(=O)C1(C)CCCN(C(=O)Cc2ccc3ccccc3c2)C1", "note": "(stereo unspecified)", "Potency": "inconclusive [inhibitor, single point]"}, {"compound": "CN(Cc1ccc(Cl)cc1)C(=O)CNC(=O)C12CC3CC(CC(C3)C1)C2", "Potency": "active: 18.4 µM"}, {"compound": "COc1ccc2c(c1)OC1(O)COc3cc(OC)c(OC)cc3C1=C2", "note": "(stereo unspecified)", "Potency": "inconclusive [inhibitor, single point]"}, {"compound": "Cc1cccc(-c2nc(Cn3c(=O)cc(-c4ccccc4)c4c(C)nn(C)c43)c(C)o2)c1", "Potency": "inactive"}, {"compound": "Cc1cccc(-c2nnc(-c3cccc4ccccc34)o2)c1", "Potency": "inconclusive [inhibitor, single point]"}, {"compound": "O=C1[C@H]2[C@@H](c3ccc(Cl)cc3)N3C(=O)N(c4cccc(F)c4)C(=O)[C@@]3(Cc3ccccc3)[C@H]2C(=O)N1C1CCCCC1", "activity change, negative = growth inhibition": "inconclusive: -30.9% [inhibitor]"}, {"compound": "CCn1cc(C(=O)OCC(=O)Nc2ccc(F)cc2F)c(=O)c2ccc(C)nc21", "Potency": "inconclusive [inhibitor, single point]"}]}]}
